Source: PubChem BioAssay AID463173 (ICCB-Longwood Screening Facility, Harvard Medical School, 2010)
The whole screen tested about 52,000 compounds, of which about 1,700 (3.3%) were called active. Cut-off read from the data, not from the text of the source: active = survival mostly below about 52% (no sharp cut-off); inactive = mostly above about 56%. This is one part of the list.

tested on: Wild type; assay: S. aureus survival, RN4220 and DeltatarO strains – OD600, teichoic acid synthesis inhibitors, primary screen (AID 463173); conditions: S. aureus RN4220 wild type/DeltatarO growth, OD600, 18 h, active compounds read low, screened at 18.75 µg/mL (by protocol)

Row | SMILES | survival
1 | N#Cc1nc(-c2ccc(COc3ccc(Cl)cc3)o2)oc1N1CCC(C(N)=O)CC1 | inactive: 49%
2 | O=C(O)CCc1ccc(-c2ccccc2)n1Cc1ccco1 | inactive: 103%
3 | O=C(Cn1c(=O)n(-c2ccccc2)c(=O)c2c3c(sc21)CCCC3)Nc1ccc(F)cc1F | inactive: 87%
4 | Cc1cc(=O)n(Cc2ccc(Cl)cc2)c2c1c(C)nn2-c1ccccc1 | inactive: 131%
5 | COc1ccc(OC)c(S(=O)(=O)NCCS(=O)(=O)N2CCN(c3ccccc3)CC2)c1 | inactive: 89%
6 | COc1cccc(CNC(=O)c2cccc(-n3c(C)nc4cccnc43)c2)c1OC | inactive: 99%
7 | O=C(NCC(c1ccco1)S(=O)(=O)c1cccs1)c1ccc(F)c(F)c1 (configuration not stated) | inactive: 78%
8 | CCCn1c(C(=O)OC)cc2c1ccn2C | inactive: 114%
9 | CCc1ccccc1NC(=O)N1CCCn2nc(C)cc21 | inactive: 73%
10 | O=C(NCc1noc2ccccc12)N1CCN(c2ccccc2)CC1 | inactive: 82%
11 | O=C(Nc1ccc(NC(=O)C2CC23CCC3)cc1)C1CC12CCC2 (configuration not stated) | inactive: 118%
12 | CC1CCN(c2nn3c(=O)c(C(=O)NC(C)C)cnc3s2)CC1 | inactive: 92%
13 | Cc1nc(-c2ccccc2)sc1-c1ccc(SCC(=O)NCc2ccccc2Cl)nn1 | inactive: 40%
14 | COc1ccc(OCC(=O)Nc2ccc(N3CCN(S(C)(=O)=O)CC3)cc2)cc1 | inactive: 110%
15 | Cc1nn(C)c2c1c(-c1ccccc1)cc(=O)n2CC(=O)NC(C)c1ccccc1 (configuration not stated) | inactive: 83%
16 | N#C/C(=C\c1ccco1)S(=O)(=O)c1ccc(Cl)cc1 | inactive: 117%
17 | CCOc1ccc(-c2cc3nc(C4CCN(C(=O)OC(C)(C)C)CC4)c(C(=O)Nc4cc(OC)ccc4OC)cn3n2)cc1 | inactive: 90%
18 | Cc1ccc(Cl)cc1NC(=O)c1sc(-n2nc(C)c(Cc3ccc4c(c3)OCO4)c2C)nc1C | inactive: 83%
19 | CCN1CCOC(=O)C1CC(=O)Nc1ccc(Br)cc1 (configuration not stated) | inactive: 38%
20 | O=C(Cn1c(=O)n(Cc2ccccc2)c(=O)c2sc3ccccc3c21)Nc1ccccc1 | inactive: 65%
21 | CCCOc1ccc(C2c3c(-c4c(C)cc(C)cc4O)n[nH]c3C(=O)N2CCO)cc1 (configuration not stated) | inactive: 93%
22 | CCCCCn1c(CN2CCN(c3ccc(OC)cc3)CC2)nc2c1c(=O)[nH]c(=O)n2C | inactive: 81%
23 | COc1ccc(-n2c(-c3ccco3)nc3c(cnn3-c3ccccc3Cl)c2=O)cc1 | inactive: 124%

Row | SMILES | survival
24 | Cc1ccc(Cl)cc1NC(=O)Nc1cccc(OCc2cc(=O)n3ccccc3n2)c1 | inactive: 64%
25 | Cc1cc(=O)n(Cc2ccccc2)c2c1c(C)nn2C | active: -3%
26 | COc1ccc(C)cc1NC(=O)CC1NCCNC1=O (configuration not stated) | inactive: 70%
27 | Cc1ccc(Nc2nnc(-c3ccc(C)c(S(=O)(=O)N4CCOCC4)c3)c3ccccc23)cc1 | inactive: 90%
28 | Cc1cc(C)c2c(=O)cc(C(=O)Nc3sc4c(c3C(=O)NCC3CCCO3)CCCC4)oc2c1 (configuration not stated) | inactive: 84%
29 | CN(C)C(=O)CN(c1ccccc1)S(=O)(=O)c1ccccc1 | inactive: 96%
30 | COCCNC(=O)c1ccc2nc(Cc3ccccc3)oc2c1 | inactive: 90%
31 | CC(C)N(CCCNC(=O)Cn1ncc2c([nH]c3ccccc32)c1=O)Cc1ccccc1 | inactive: 81%
32 | CCC(=O)C1=C(c2ccc(OC)c(OC)c2)N(C(=O)CC)n2c(nnc2-c2ccc(C)cc2)S1 | inactive: 74%
33 | CCOC(=O)c1ccc(NC(=O)CSc2nc3ccccc3c(=O)n2CCC(=O)NC2CCCCC2)cc1 | inactive: 77%
34 | COc1ccc(-c2nc(CS(=O)(=O)CC(=O)NCCc3ccc(C)cc3)c(C)o2)cc1 | inactive: 91%
35 | CC(=O)c1ccc(N2CCN(c3ccc4cc(S(=O)(=O)N5CCCCC5)ccc4n3)CC2)cc1 | inactive: 57%
36 | O=C1CCC(=O)N1C(c1ccccc1)c1ccccc1 | inactive: 104%
37 | CN(C)CCCC1(O)c2ccccc2CCc2ccccc21 | inactive: 97%
38 | CC(=O)c1cc(-c2ccccc2)n(CC(=O)Nc2ccc(C)c(C)c2)c1C | inactive: 75%
39 | COc1ccc(OC)c(CNS(=O)(=O)c2ccc(-c3coc(C)n3)cc2)c1 | inactive: 85%
40 | CCOc1ccc(CNC(=O)CS(=O)(=O)c2cccc3nsnc23)cc1 | inactive: 126%
41 | COc1ccccc1-c1nc(SCC(=O)NCc2ccccc2)c2c(=O)n(C)c(=O)n(C)c2n1 | inactive: 69%
42 | O=C(CSC1=NC2CCCCC2N1)N1CCOCC1 (configuration not stated) | inactive: 99%
43 | COc1ccccc1-c1noc(-c2ccc(NC3CCCC3)c([N+](=O)[O-])c2)n1 | inactive: 67%
44 | Cc1cc2nc(-c3ccc(NC(=O)c4ccccc4F)cc3)oc2cc1C | inactive: 78%
45 | N#CC1(c2ccccc2)CCCN1C(=O)c1ccco1 (configuration not stated) | inactive: 108%
46 | Nc1ncc(S(=O)(=O)Nc2ccc(F)cc2F)cn1 | inactive: 82%

Row | SMILES | survival
47 | COc1ccc(C2C=C(c3ccccc3)Nc3nc(NC(=O)/C=C/c4ccccc4Cl)nn32)cc1 (configuration not stated) | inactive: 112%
48 | CCc1cnc2c(c1SCC(=O)NCc1ccc(F)cc1)c(=O)n(C)c(=O)n2C | inactive: 131%
49 | Cc1cccc(C(=O)Nc2ccc3nc(SCCOc4ccccc4)sc3c2)c1 | inactive: 93%
50 | COc1ccc(CCNc2nc(SCc3ccc(Cl)cc3)nc3ccccc23)cc1OC | inactive: 69%
51 | Nc1c(C(=O)Nc2cccc(F)c2)c2ccccn2c1C(=O)c1ccccc1 | inactive: 97%
52 | CCOC(=O)c1c(NC(=O)COc2cccc(C)c2C)sc(C(C)=O)c1C | inactive: 130%
53 | COc1ccc(N2CCN(C(c3ccccc3F)c3sc4nc(-c5ccco5)nn4c3O)CC2)cc1 (configuration not stated) | inactive: 66%
54 | COc1ccc(Cl)cc1NC(=O)Cn1c(=O)c(-c2ccccc2NC(C)=O)nc2ccccc21 | inactive: 112%
55 | Cc1ccc(C)c(Cn2c(C(=O)O)c(CNCc3cccs3)c3ccccc32)c1 | inactive: 86%
56 | Fc1ccc(CSc2nncn2NCc2ccc3c(c2)OCO3)cc1 | inactive: 105%
57 | Cc1cc(C)c2c(c1)c(C)cc1nnc(SCC(=O)c3ccc(F)cc3)n12 | inactive: 61%
58 | COC(=O)c1ccccc1NC(=O)Cn1c(=O)cc(C)c2c(C)nn(C)c21 | inactive: 85%
59 | CCCCC(=O)N1CCc2cc(OC)c(OC)cc2C1COc1ccc(OC)cc1 (configuration not stated) | inactive: 74%
60 | Cc1c(C(=O)O)oc2c1-c1nn(Cc3ccc(Cl)cc3)cc1CC2 | inactive: 77%
61 | CN(C)CCNC(=O)C(=O)NCC(c1ccc2c(c1)OCO2)N1CCOCC1 (configuration not stated) | inactive: 73%
62 | Cc1cc(-c2ccccc2)n2nc(-c3ccccc3)cc2n1 | active: -2%
63 | COc1ccccc1C(=O)Nc1c(C(=O)Nc2ccccc2F)oc2ccccc12 | active: 2%
64 | CCCCOc1ccc(C(=O)OCC2CCCN3CCCCC23)cc1OC (configuration not stated) | inactive: 108%
65 | COc1cccc(CNS(=O)(=O)c2ccc3c(c2)C(C(C)C)C(=O)N3)c1 (configuration not stated) | inactive: 152%
66 | Cc1ccc2cccc(NC(=O)C(C)Oc3ccc(Cl)cc3Cl)c2n1 (configuration not stated) | active: -9%
67 | O=C(NCCC1CCCC1)c1cccs1 | inactive: 109%
68 | CCOc1ccc(C(c2c(O)cc(C)n(Cc3ccco3)c2=O)N2CCCCC2)cc1 (configuration not stated) | inactive: 72%
69 | O=C(Nc1cccc(-c2nc3ccccc3o2)c1)C(F)(F)F | inactive: 70%

Row | SMILES | survival
70 | CN(C)CCN1C(=O)C(=O)/C(=C(/O)c2ccc(S(=O)(=O)N(C)C)cc2)C1c1ccccc1 (configuration not stated) | inactive: 102%
71 | COc1ccc(CNC(=O)Nc2cn(CC(C)C)c(=O)c3ccccc23)cc1 | inactive: 71%
72 | CC(=O)c1ccc(NC(=O)CN(C)S(=O)(=O)c2cnc[nH]2)cc1 | inactive: 85%
73 | Cc1cc(Cl)ccc1OCC(=O)N1CCC(c2nc3ccccc3s2)CC1 | inactive: 35%
74 | Cc1cc(C)c(NC(=O)CSc2nncn3c2cc2oc(C)cc23)c(C)c1 | inactive: 85%
75 | Cc1ccn2c(Nc3ccc(C(C)C)cc3)c(-c3cccnc3)nc2c1 | inactive: 47%
76 | Cc1ccc(OCCSc2nc(C)c(Cc3ccccc3)c(=O)[nH]2)cc1 | inactive: 86%
77 | CC(=O)c1cccc(NS(=O)(=O)c2cc3c(cc2C)N(C(C)=O)CCO3)c1 | inactive: 83%
78 | O=C(CCCc1ccccc1)NC1CC(=O)N(c2ccc(F)cc2)C1 (configuration not stated) | inactive: 72%
79 | Cn1nc(OCC(N)=O)ccc1=O | inactive: 104%
80 | CCc1cccc(NC(=O)c2ccc(NC(=O)N3CCSc4ncccc43)cc2)c1 | active: -3%
81 | Cc1ccc(NC(=O)N2CCC(CN3CCCC3)CC2)c(C)c1 | inactive: 87%
82 | Cc1ccc(-c2nc(C(=O)NCc3ccccc3Cl)c3n2CCCCC3)cc1 | inactive: 76%
83 | Cc1ccc2nc(-c3cc(NC(=O)COc4ccc(C)c(C)c4)ccc3Cl)oc2c1 | inactive: 57%
84 | Cc1ccc(S(=O)(=O)Nc2cc3c(cc2N2CCOCC2)n(C)c(=O)n3C)cc1 | inactive: 80%
85 | Cc1ccc(NC(=O)N2CCN(c3cc(-c4noc(C)n4)ccc3C)CC2)c(F)c1 | active: -6%
86 | CCC(=O)Oc1ccc(C2Nc3ccccc3-c3nnc(SC)nc3O2)cc1 (configuration not stated) | inactive: 83%
87 | Cc1ccc(C(=O)NCC(c2ccc3c(c2)OCO3)N2CCOCC2)cc1 (configuration not stated) | inactive: 78%
88 | CCc1nn(CCCC(=O)N2CCN(c3cccc(OC)c3)CC2)c(=O)c2cc3occc3n12 | inactive: 124%
89 | Cc1c(-c2nc(-c3ccc4c(c3)OCO4)no2)nnn1-c1ccc(C(C)C)cc1 | inactive: 73%
90 | Cc1cccc(NC(=O)C(Cc2ccccc2)NS(=O)(=O)c2ccc3c(c2)c(=O)n(C)c(=O)n3C)c1 (configuration not stated) | inactive: 75%
91 | COC(=O)C1CCN(S(=O)(=O)c2ccc(N3CCCCS3(=O)=O)cc2)CC1 | inactive: 71%
92 | COC(=O)c1cc(C)nc2c1c(=O)nc(SCc1ccccc1C)n2C1CC1 | inactive: 85%
